Each structure is given as a SMILES string. About 2,200 (0.71%) of roughly 310,000 compounds showed an effect of 50% or more. The effect is printed as a negative number. The list shows a part of the results.

Data on 90 molecules can be found in PMC4336329 (PLoS ONE, 2015).

Sequence of human ether-à-go-go-related gene (hERG) potassium channel (Q12809 whole entry, looked up): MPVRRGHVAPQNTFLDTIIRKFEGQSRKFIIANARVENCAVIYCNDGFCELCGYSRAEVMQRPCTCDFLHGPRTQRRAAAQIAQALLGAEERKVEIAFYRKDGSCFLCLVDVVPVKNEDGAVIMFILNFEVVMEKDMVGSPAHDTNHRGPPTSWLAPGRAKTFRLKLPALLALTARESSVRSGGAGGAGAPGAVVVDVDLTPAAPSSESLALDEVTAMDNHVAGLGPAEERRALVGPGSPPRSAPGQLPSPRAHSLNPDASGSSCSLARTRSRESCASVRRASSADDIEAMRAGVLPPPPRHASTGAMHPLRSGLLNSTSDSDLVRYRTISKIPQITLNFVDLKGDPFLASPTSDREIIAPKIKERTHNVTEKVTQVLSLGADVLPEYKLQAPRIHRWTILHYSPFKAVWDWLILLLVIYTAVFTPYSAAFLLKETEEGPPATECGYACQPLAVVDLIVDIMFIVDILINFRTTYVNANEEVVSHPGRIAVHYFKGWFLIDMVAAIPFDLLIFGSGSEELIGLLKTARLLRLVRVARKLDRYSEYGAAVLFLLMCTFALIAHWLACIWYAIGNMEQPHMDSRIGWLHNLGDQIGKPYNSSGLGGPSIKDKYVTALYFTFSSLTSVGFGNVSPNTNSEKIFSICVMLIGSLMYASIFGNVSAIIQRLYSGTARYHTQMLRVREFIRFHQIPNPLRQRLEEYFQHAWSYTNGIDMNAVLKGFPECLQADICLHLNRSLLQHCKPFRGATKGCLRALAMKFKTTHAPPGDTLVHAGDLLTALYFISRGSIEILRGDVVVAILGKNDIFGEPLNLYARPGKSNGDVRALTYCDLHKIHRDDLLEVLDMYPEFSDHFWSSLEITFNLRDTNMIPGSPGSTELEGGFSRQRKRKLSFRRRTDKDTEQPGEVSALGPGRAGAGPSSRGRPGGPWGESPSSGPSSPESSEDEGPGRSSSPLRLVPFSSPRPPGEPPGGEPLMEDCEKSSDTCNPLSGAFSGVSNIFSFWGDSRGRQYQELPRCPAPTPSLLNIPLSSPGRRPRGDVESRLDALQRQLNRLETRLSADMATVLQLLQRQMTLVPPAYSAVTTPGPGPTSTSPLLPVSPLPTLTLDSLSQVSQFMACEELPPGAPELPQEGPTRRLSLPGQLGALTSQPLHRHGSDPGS

This assay addresses human ether-à-go-go-related gene (hERG) potassium channel (human, UniProt Q12809). Kind of assay: primary screen, population patch clamp on CHO cells stably expressing hERG.
With `CCc1c(C)[nH]c2nc3ccccc3n2c1=O`, the “hERG current change (%, negative = inhibition) at 1uM” value was 6.81%. Under `CCN(CC)c1ccc(NC(=O)Cn2cc3c(n2)CCC(C)C3)c(C)c1` (stereo not drawn) stands 4.09%. Under `CC(=O)OC1COC(n2ccc3cc([N+](=O)[O-])ccc32)C(OC(C)=O)C1OC(C)=O` (stereo not drawn) stands 0.733%; under `CN(CCO)C(=O)c1ccc(-c2nn(C)c(=O)c3ccccc23)cc1`, 6.22%; under `COC(=O)c1sccc1NC(=O)c1ccc(OC)c([N+](=O)[O-])c1`, 7.04%.

For the molecule `COc1ccc(/C(C)=N/NC(=O)CNC(=O)C(c2ccccc2)c2ccccc2)c(OC)c1`, the “hERG current change (%, negative = inhibition) at 1uM” value is on record as 13.6%. Under `Cc1ccc2nc(-c3ccc(NC(=O)c4cccnc4)cc3)oc2c1` stands 12.8%; under `COc1ccc(CNC(=O)N[C@H](C(=O)O)C(C)C)cc1OC`, 9.96%. On to `O=C1NC2(Nc3ccccc31)C(=O)Nc1ccccc12` (stereo not drawn), for which the “hERG current change (%, negative = inhibition) at 1uM” value is on record as 16.7%. Turning to `Cc1ccc(OCC(=O)N2CCC(C)CC2)c([N+](=O)[O-])n1`, the “hERG current change (%, negative = inhibition) at 1uM” value amounted to 6.04%. Consider `C=CCN1C(=O)c2ccc(C(=O)Nc3ccccn3)cc2C1=O`, for which the “hERG current change (%, negative = inhibition) at 1uM” value is given as 10.7%. Turning to `CSc1ccccc1NC(=O)c1cc(-c2ccco2)on1`, the “hERG current change (%, negative = inhibition) at 1uM” value was found to be 12.1%.

For `COc1ccccc1CC(=O)Nc1cccc2c1CCCC2`, the “hERG current change (%, negative = inhibition) at 1uM” value is listed as 1.25%. On to `C/C(=N\NC(=O)CN1CCN(Cc2ccccc2)CC1)c1ccncc1`, for which the “hERG current change (%, negative = inhibition) at 1uM” value is -3.1%. For the molecule `COc1ccc2oc(C(=O)OC(C)C(=O)N(C)c3ccccc3)c(C)c2c1` (stereo not drawn), the “hERG current change (%, negative = inhibition) at 1uM” value was 2.56%. For the molecule `CC(OC(=O)c1ccc(Cl)nc1)C(=O)NC1(C#N)CCCCC1` (stereo not drawn), the “hERG current change (%, negative = inhibition) at 1uM” value is listed as 0.802%. Turning to `CCOC(=O)CN(c1ccccn1)S(=O)(=O)c1ccccc1`, the “hERG current change (%, negative = inhibition) at 1uM” value is listed as -7.75%. With `Cc1cc(C(=O)CSc2nc(N)cc(=O)[nH]2)ccc1F`, the “hERG current change (%, negative = inhibition) at 1uM” value stood at 17.6%. On to `N#CN(CC(N)=O)c1nc(N2CCCCC2)nc(N2CCCCC2)n1`, for which the “hERG current change (%, negative = inhibition) at 1uM” value turned out to be 16%. Under `O=C(c1cccn(Cc2ccc(C(F)(F)F)cc2)c1=O)N1CCOCC1` stands 13.8%; under `CN(C)c1ccc(NC(=O)CCCc2ccccc2)cc1`, 4.45%. Consider `O=C(Cc1cccs1)NCc1cccc(Br)c1`, for which the “hERG current change (%, negative = inhibition) at 1uM” value came to 9.45%. On to `C[C@@]12CCC=C[C@H]1[C@H](c1ccc3ccccc3c1/C=C/c1ccccc1)N(Cc1ccccc1)C2=O`, for which the “hERG current change (%, negative = inhibition) at 1uM” value is 1.03%. As for `O=C(Nc1cccc(F)c1)Nc1cccc(Cl)c1`, the “hERG current change (%, negative = inhibition) at 1uM” value is given as 12.3%. As to `CCNC(=O)CCc1nc(-c2ccc(C(C)(C)C)cc2)no1`, the “hERG current change (%, negative = inhibition) at 1uM” value is -13.4%.

Consider `Cc1cc(C)nc(N2CCCC(C(=O)NCCc3ccc(F)cc3)C2)n1` (stereo not drawn), for which the “hERG current change (%, negative = inhibition) at 1uM” value is 2.46%.

Take `O=C(O)C1Cc2ccccc2CN1C(=O)CCl` (stereo not drawn): the “hERG current change (%, negative = inhibition) at 1uM” value is 11.2%. For `CC(C)(Oc1ccc(Cl)cc1)C(=O)N1CCC(C(N)=O)CC1`, the “hERG current change (%, negative = inhibition) at 1uM” value was 5.21%. Under `O=C(O)c1ccc(NC(=O)c2cccc(C(=O)Nc3ccc(C(=O)O)cc3)c2)cc1` stands 15%; under `O=C(O)CN(c1ccccc1)C1SC(=O)NC1=O` (stereo not drawn), 5.91%.

Take `O=C(CSc1ccc2nnc(-c3ccccc3)n2n1)NCC1CCCO1` (stereo not drawn): the “hERG current change (%, negative = inhibition) at 1uM” value came to 2.68%. Under `Cc1ncc(/C=C2\C(=O)Nc3ccccc32)[nH]1` stands 13.6%. For `Cc1ccccc1Cn1c(-c2cncs2)nc2ccccc21`, the “hERG current change (%, negative = inhibition) at 1uM” value is on record as 5.21%.

As for `CCC1Sc2ccc(S(=O)(=O)CCC(=O)NCc3cccs3)cc2NC1=O` (stereo not drawn), the “hERG current change (%, negative = inhibition) at 1uM” value is 11.2%. With `c1ccc(CN=C2NN=C(c3ccccc3)CS2)cc1` the figure was 16.4%.

Consider `CCOc1ccc(OCC)c(NC(=O)CN(c2ccc(OC)cc2)S(=O)(=O)c2c(C)noc2C)c1`, for which the “hERG current change (%, negative = inhibition) at 1uM” value is reported as 15.7%. As for `CCc1nc2ccccc2c(C(=O)Nc2cc(C)ccc2C)c1C`, the “hERG current change (%, negative = inhibition) at 1uM” value stood at 4.44%.

Consider `COc1cccc(C(c2sc3ncnn3c2O)N2CCN(C(=O)c3ccco3)CC2)c1` (stereo not drawn), for which the “hERG current change (%, negative = inhibition) at 1uM” value is given as -13.3%. Under `Cc1ccc(S(=O)(=O)Oc2ccccc2/C=N/O)cc1` stands 7.57%; under `O=C1CN(C(=O)c2cc(F)cc(F)c2)c2ccccc2N1`, 1.48%.

`Cc1ccc(-c2cc(C(F)(F)F)n3nc(C(=O)Nc4c(C)n(C)n(-c5ccccc5)c4=O)cc3n2)cc1`: the “hERG current change (%, negative = inhibition) at 1uM” value is -1.98%. As for `CCN(CC)C(=O)COc1c(-c2ccco2)oc2ccccc2c1=O`, the “hERG current change (%, negative = inhibition) at 1uM” value amounted to 9.53%.

Consider `CCCCN(C)CCOc1ccccc1OCC.O=C(O)C(=O)O`, for which the “hERG current change (%, negative = inhibition) at 1uM” value worked out at 7.28%. With `Cc1ccc(NC(=O)CNCCCN2CCOCC2)cc1S(=O)(=O)N1CCCCC1.O=C(O)C(=O)O`, the “hERG current change (%, negative = inhibition) at 1uM” value is given as 8.24%. For `CCOC(=O)CC1C(=O)NCCN1C(=S)NC(=O)c1ccccc1OC` (stereo not drawn), the “hERG current change (%, negative = inhibition) at 1uM” value is 16.8%.

In the case of `Cc1ccc(-c2nnc(CN3CCCCC3C)o2)cc1` (stereo not drawn), the “hERG current change (%, negative = inhibition) at 1uM” value is given as 3.3%. `C/C(=N\NC(=O)c1cccs1)c1ccc2c(c1)OCO2`: the “hERG current change (%, negative = inhibition) at 1uM” value came out at 8.4%.

On to `CCOc1ccc(N(C)S(=O)(=O)c2ccc(C)c(C(=O)Nc3nnc(C4CC4)s3)c2)cc1`, for which the “hERG current change (%, negative = inhibition) at 1uM” value was determined as 12.4%. With `O=C(CN1CCN(Cc2ccccc2Cl)C1=O)NC1CCCCCC1` the figure was 7.78%. Under `COc1ccc2nc(NC(=O)CSc3nccc(C)n3)sc2c1` stands -2.35%; under `O=C(CN1C(=O)NC2(CCCc3ccccc32)C1=O)c1ccc(Br)cc1` (stereo not drawn), -1.44%. For `COC(=O)CSc1nc(NCC(C)C)nc(N2CCOCC2)n1`, the “hERG current change (%, negative = inhibition) at 1uM” value amounted to 0.72%.

Turning to `CN(Cc1ccccc1)C(=O)NC1CCCCC1`, the “hERG current change (%, negative = inhibition) at 1uM” value is -8.06%. Under `Cc1ccc(SCC(=O)Nc2ccc(S(=O)(=O)Nc3ncccn3)cc2)cc1` stands 9.51%. With `CC(=O)c1ccc(N(C(=O)Cn2nnc3ccccc32)C(C(=O)NCc2ccccc2)c2ccccn2)cc1` (stereo not drawn) the figure was -10.6%; with `COCCNC(=O)C1(S(=O)(=O)c2ccccc2)CC=CC1`, 5.27%. In the case of `CCOC(=O)c1ccc(NC(=O)CC2OCCN(CC)C2=O)cc1` (stereo not drawn), the “hERG current change (%, negative = inhibition) at 1uM” value turned out to be 4.02%. Under `C=C(C)COc1ccc(-c2nc(N)ncc2Oc2ccccc2OCC)c(O)c1` stands 11%. Under `O=C(c1cccnc1Cl)N1CCOCC1` stands 20.2%; under `CCOC(=O)CCCNC(=O)COc1ccccc1C#N`, 16.9%; under `Cc1cccc(N(C(=O)c2snc(C(N)=O)c2N)C(C(=O)NCC2CCCO2)c2ccc(N(C)C)cc2)c1` (stereo not drawn), 19.7%. Under `CC(C)(C)c1ccc(NC(=O)COC(=O)CCc2nc3ccccc3c(=O)[nH]2)cc1` stands 15.1%. Take `Oc1ccc(-c2nnc(SCC3CCCCC3)o2)cc1`: the “hERG current change (%, negative = inhibition) at 1uM” value was found to be 7.92%. Take `Cc1c(C)c2ccc(OCC(=O)Nc3cccnc3)c(C)c2oc1=O`: the “hERG current change (%, negative = inhibition) at 1uM” value was 13.1%.

As to `CNC(=O)COC(=O)c1cc2c(C)nn(-c3ccc(F)cc3)c2s1`, the “hERG current change (%, negative = inhibition) at 1uM” value was -6.54%. With `Cc1ccc(-c2cc(C(F)(F)F)n3ncc(C(=O)N4CCCc5ccccc54)c3n2)cc1` the figure was 8.82%; with `CN(Cc1cccs1)S(=O)(=O)c1ccc(Cl)cc1F`, 8.81%. Under `O=C(Nc1cccc2nsnc12)c1cccnc1` stands 7.94%; under `CC(C)n1nccc1N(Cc1ccc(Cl)cc1)S(=O)(=O)c1ccccc1`, 2.65%; under `CCOc1ccc(OCc2ccc(C(=O)Nc3cccnc3)cc2)cc1`, 16.5%. With `Cc1ccccc1NC(=O)CCN1CCCC1.Cl` the figure was 5.51%; with `CC(=O)Nc1ccccc1C(=O)C(=O)Nc1cccc(C(=O)NCC2CCCO2)c1` (stereo not drawn), 11%; with `O=C1C2C3CCCC3=C3CCCC3C2C(=O)N1c1cccc(Cl)c1` (stereo not drawn), 10.8%. As for `Cc1ccccc1C(=O)Nc1c(C)[nH]c(=O)[nH]c1=O`, the “hERG current change (%, negative = inhibition) at 1uM” value is 6.76%. As for `NC(=O)[C@@H]1CCCN1C(=O)[C@@H](Cc1cnc[nH]1)NC(=O)[C@@H]1CCC(=O)N1`, the “hERG current change (%, negative = inhibition) at 1uM” value was 4.72%. With `Cc1ccc(N/N=C(\C#N)C(N)=S)cc1C` the figure was -1.43%.

For the molecule `COc1ccc(NC(=O)CSc2nnc(Cc3ccccc3)c(=O)n2N)cc1OC`, the “hERG current change (%, negative = inhibition) at 1uM” value stood at 3.22%.

Take `CCOC(=O)Cc1cc(OC)c(OC)cc1Cc1cc(OC)c(OC)cc1CC(=O)OCC`: the “hERG current change (%, negative = inhibition) at 1uM” value amounted to 15.4%. As for `COc1ccc(NC(=S)Nc2cccc(Cl)c2)cc1OC`, the “hERG current change (%, negative = inhibition) at 1uM” value is given as 14%. With `Cc1ccccc1Cn1c2ccccc2c2cn[nH]c(=O)c21` the figure was 17.5%. With `Cl.OC(COCc1ccc(Cl)cc1)CN1CCCCC1` (stereo not drawn) the figure was 0.152%; with `COc1ccccc1-c1nc2c(c(SCC(=O)N3CCCCC3)n1)Cc1c(CO)cnc(C)c1O2`, 12.4%. With `Nc1nc(SCC(=O)c2cc(F)ccc2F)n[nH]1` the figure was 14.3%; with `CCOc1ccc(CN2CCN(Cc3ccc(C)o3)CC2CCO)cc1` (stereo not drawn), -87.8%. `CCN(CC)CCCNC(=O)CC1Oc2ccc(C)cc2NC1=O` (stereo not drawn): the “hERG current change (%, negative = inhibition) at 1uM” value came out at 6.63%. As to `COCCN(CCOC)S(=O)(=O)c1ccc(C(=O)Nc2sc3c(c2C(N)=O)CCCCC3)cc1`, the “hERG current change (%, negative = inhibition) at 1uM” value turned out to be 14.5%. With `CC(C)(C)c1cc[n+](CC(=O)Nc2cc(C(F)(F)F)ccc2N2CCOCC2)cc1.[Cl-]` the figure was 5.44%. Turning to `O=C(NCc1cc([N+](=O)[O-])ccc1O)c1cccnc1Sc1ccccc1`, the “hERG current change (%, negative = inhibition) at 1uM” value is listed as -1.12%.

As to `COc1ccccc1N1CCN(/N=C/c2ccc(C(=O)O)cc2)CC1`, the “hERG current change (%, negative = inhibition) at 1uM” value is recorded as 8.32%. Under `CCCSc1nnc2n(N)c(=O)c3ccccc3n12` stands 11.3%.
